# From publication PMC12820563
# Some of the results follow. The list includes weakly bound sequences.
# Target: T1, MBP-FoxP3dN (UniProt Q99JB6)
# T1 sequence: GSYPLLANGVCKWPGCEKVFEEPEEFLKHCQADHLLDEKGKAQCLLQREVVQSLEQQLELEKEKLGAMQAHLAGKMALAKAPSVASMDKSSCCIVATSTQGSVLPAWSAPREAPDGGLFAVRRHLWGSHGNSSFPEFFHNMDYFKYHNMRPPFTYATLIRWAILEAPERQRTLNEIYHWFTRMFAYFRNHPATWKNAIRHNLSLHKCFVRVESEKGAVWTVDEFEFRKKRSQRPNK
# Experiment: PD-seq (MBP pull-down with sequencing)
# Conditions: 20 mM Tris-HCl pH 7.5, 100 mM NaCl, 1.5 mM MgCl2, 0.4 uM protein, 0.1 uM dsDNA library, 30 min, room temperature, amylose pull-down; high values mean tight binding; double strand, one strand shown
row,Sequence,binding signal (RPM ratio (pull-down/input))
1,GATGATTGTTCTCCCAGCTGATGAATTTCAATGTTCGAGTAAACAAATTTTCCTAATCTTTCTGTTCAAGCGCCATCTAC,0.864
2,GATGATTGTTCTCCCAGCTGATGAATTGCACCTGTCGAGTAAACAAATTTTCCTAATCTTTCTGTTCAAGCGCCATCTAC,0.924
3,GATGATTGTTCTCCCAGCTGATGAATTTTTCTAATCGAGTAAACAAATTTTCCTAATCTTTCTGTTCAAGCGCCATCTAC,0.288
4,GATGATTGTTCTCCCAGCTGATGAATTAACAGCTTCGAGTAAACAAATTTTCCTAATCTTTCTGTTCAAGCGCCATCTAC,0.356
5,GATGATTGTTCTCCCAGCTGATGAATTGATAATCTCGAGTAAACAAATTTTCCTAATCTTTCTGTTCAAGCGCCATCTAC,0.411
6,GATGATTGTTCTCCCAGCTGATGAATTAGAACCATCGAGTAAACAAATTTTCCTAATCTTTCTGTTCAAGCGCCATCTAC,0.294
7,GATGATTGTTCTCCCAGCTGATGAATTTCAGAGGTCGAGTAAACAAATTTTCCTAATCTTTCTGTTCAAGCGCCATCTAC,0.235
8,GATGATTGTTCTCCCAGCTGATGAATTGGTGAGGTCGAGTAAACAAATTTTCCTAATCTTTCTGTTCAAGCGCCATCTAC,0.385
9,GATGATTGTTCTCCCAGCTGATGAATTTATCGGGTCGAGTAAACAAATTTTCCTAATCTTTCTGTTCAAGCGCCATCTAC,0.725
10,GATGATTGTTCTCCCAGCTGATGAATTCACGAATTCGAGTAAACAAATTTTCCTAATCTTTCTGTTCAAGCGCCATCTAC,0.551
11,GATGATTGTTCTCCCAGCTGATGAATTTTTAAACTCGAGTAAACAAATTTTCCTAATCTTTCTGTTCAAGCGCCATCTAC,0.29
12,GATGATTGTTCTCCCAGCTGATGAATTGAATGTATCGAGTAAACAAATTTTCCTAATCTTTCTGTTCAAGCGCCATCTAC,1.11
13,GATGATTGTTCTCCCAGCTGATGAATTTTTACTTTCGAGTAAACAAATTTTCCTAATCTTTCTGTTCAAGCGCCATCTAC,0.282
14,GATGATTGTTCTCCCAGCTGATGAATTTCCGAGATCGAGTAAACAAATTTTCCTAATCTTTCTGTTCAAGCGCCATCTAC,0.216
15,GATGATTGTTCTCCCAGCTGATGAATTACCATTTTCGAGTAAACAAATTTTCCTAATCTTTCTGTTCAAGCGCCATCTAC,0.384
16,GATGATTGTTCTCCCAGCTGATGAATTGGGTGGTTCGAGTAAACAAATTTTCCTAATCTTTCTGTTCAAGCGCCATCTAC,0.736
17,GATGATTGTTCTCCCAGCTGATGAATTCGCTCGATCGAGTAAACAAATTTTCCTAATCTTTCTGTTCAAGCGCCATCTAC,0.282
18,GATGATTGTTCTCCCAGCTGATGAATTAGGAGCTTCGAGTAAACAAATTTTCCTAATCTTTCTGTTCAAGCGCCATCTAC,0.351
19,GATGATTGTTCTCCCAGCTGATGAATTTGACCGCTCGAGTAAACAAATTTTCCTAATCTTTCTGTTCAAGCGCCATCTAC,0.288
20,GATGATTGTTCTCCCAGCTGATGAATTGCGCACGTCGAGTAAACAAATTTTCCTAATCTTTCTGTTCAAGCGCCATCTAC,2.45

row,Sequence,binding signal (RPM ratio (pull-down/input))
1,GATGATTGTTCTCCCAGCTGATGAATTTCTCTCGTCGAGTAAACAAATTTTCCTAATCTTTCTGTTCAAGCGCCATCTAC,0.26
2,GATGATTGTTCTCCCAGCTGATGAATTCGGAACATCGAGTAAACAAATTTTCCTAATCTTTCTGTTCAAGCGCCATCTAC,0.387
3,GATGATTGTTCTCCCAGCTGATGAATTCGGCCACTCGAGTAAACAAATTTTCCTAATCTTTCTGTTCAAGCGCCATCTAC,4.83
4,GATGATTGTTCTCCCAGCTGATGAATTGAAAAGATCGAGTAAACAAATTTTCCTAATCTTTCTGTTCAAGCGCCATCTAC,0.17
5,GATGATTGTTCTCCCAGCTGATGAATTCGAAGACTCGAGTAAACAAATTTTCCTAATCTTTCTGTTCAAGCGCCATCTAC,0.261
6,GATGATTGTTCTCCCAGCTGATGAATTTGGCCGGTCGAGTAAACAAATTTTCCTAATCTTTCTGTTCAAGCGCCATCTAC,0.531
7,GATGATTGTTCTCCCAGCTGATGAATTGACTCAGTCGAGTAAACAAATTTTCCTAATCTTTCTGTTCAAGCGCCATCTAC,0.273
8,GATGATTGTTCTCCCAGCTGATGAATTAACCGCTTCGAGTAAACAAATTTTCCTAATCTTTCTGTTCAAGCGCCATCTAC,0.356
9,GATGATTGTTCTCCCAGCTGATGAATTGCGCATCTCGAGTAAACAAATTTTCCTAATCTTTCTGTTCAAGCGCCATCTAC,8.03
10,GATGATTGTTCTCCCAGCTGATGAATTGAGGAACTCGAGTAAACAAATTTTCCTAATCTTTCTGTTCAAGCGCCATCTAC,0.206
11,GATGATTGTTCTCCCAGCTGATGAATTTAGGGTCTCGAGTAAACAAATTTTCCTAATCTTTCTGTTCAAGCGCCATCTAC,1.07
12,GATGATTGTTCTCCCAGCTGATGAATTAAAAACTTCGAGTAAACAAATTTTCCTAATCTTTCTGTTCAAGCGCCATCTAC,0.307
13,GATGATTGTTCTCCCAGCTGATGAATTACCCGTCTCGAGTAAACAAATTTTCCTAATCTTTCTGTTCAAGCGCCATCTAC,0.3
14,GATGATTGTTCTCCCAGCTGATGAATTGCTTACATCGAGTAAACAAATTTTCCTAATCTTTCTGTTCAAGCGCCATCTAC,2.43
15,GATGATTGTTCTCCCAGCTGATGAATTCAGTATATCGAGTAAACAAATTTTCCTAATCTTTCTGTTCAAGCGCCATCTAC,2.12
16,GATGATTGTTCTCCCAGCTGATGAATTTATGGTATCGAGTAAACAAATTTTCCTAATCTTTCTGTTCAAGCGCCATCTAC,1.97
17,GATGATTGTTCTCCCAGCTGATGAATTGATGCGATCGAGTAAACAAATTTTCCTAATCTTTCTGTTCAAGCGCCATCTAC,3.21
18,GATGATTGTTCTCCCAGCTGATGAATTACGGTCTTCGAGTAAACAAATTTTCCTAATCTTTCTGTTCAAGCGCCATCTAC,0.525
19,GATGATTGTTCTCCCAGCTGATGAATTTAATCCGTCGAGTAAACAAATTTTCCTAATCTTTCTGTTCAAGCGCCATCTAC,0.28
20,GATGATTGTTCTCCCAGCTGATGAATTGTTACGCTCGAGTAAACAAATTTTCCTAATCTTTCTGTTCAAGCGCCATCTAC,0.837
